Consider 55 molecules from publication PMC4336329 (PLoS ONE, 2015).

Hit rate of the full screen: of about 310,000 compounds, about 2,200 (0.71%) showed an effect of 50% or more. The effect is printed as a negative number. The list shows a part of the results.

human ether-à-go-go-related gene (hERG) potassium channel, sequence (Q12809 whole entry, looked up): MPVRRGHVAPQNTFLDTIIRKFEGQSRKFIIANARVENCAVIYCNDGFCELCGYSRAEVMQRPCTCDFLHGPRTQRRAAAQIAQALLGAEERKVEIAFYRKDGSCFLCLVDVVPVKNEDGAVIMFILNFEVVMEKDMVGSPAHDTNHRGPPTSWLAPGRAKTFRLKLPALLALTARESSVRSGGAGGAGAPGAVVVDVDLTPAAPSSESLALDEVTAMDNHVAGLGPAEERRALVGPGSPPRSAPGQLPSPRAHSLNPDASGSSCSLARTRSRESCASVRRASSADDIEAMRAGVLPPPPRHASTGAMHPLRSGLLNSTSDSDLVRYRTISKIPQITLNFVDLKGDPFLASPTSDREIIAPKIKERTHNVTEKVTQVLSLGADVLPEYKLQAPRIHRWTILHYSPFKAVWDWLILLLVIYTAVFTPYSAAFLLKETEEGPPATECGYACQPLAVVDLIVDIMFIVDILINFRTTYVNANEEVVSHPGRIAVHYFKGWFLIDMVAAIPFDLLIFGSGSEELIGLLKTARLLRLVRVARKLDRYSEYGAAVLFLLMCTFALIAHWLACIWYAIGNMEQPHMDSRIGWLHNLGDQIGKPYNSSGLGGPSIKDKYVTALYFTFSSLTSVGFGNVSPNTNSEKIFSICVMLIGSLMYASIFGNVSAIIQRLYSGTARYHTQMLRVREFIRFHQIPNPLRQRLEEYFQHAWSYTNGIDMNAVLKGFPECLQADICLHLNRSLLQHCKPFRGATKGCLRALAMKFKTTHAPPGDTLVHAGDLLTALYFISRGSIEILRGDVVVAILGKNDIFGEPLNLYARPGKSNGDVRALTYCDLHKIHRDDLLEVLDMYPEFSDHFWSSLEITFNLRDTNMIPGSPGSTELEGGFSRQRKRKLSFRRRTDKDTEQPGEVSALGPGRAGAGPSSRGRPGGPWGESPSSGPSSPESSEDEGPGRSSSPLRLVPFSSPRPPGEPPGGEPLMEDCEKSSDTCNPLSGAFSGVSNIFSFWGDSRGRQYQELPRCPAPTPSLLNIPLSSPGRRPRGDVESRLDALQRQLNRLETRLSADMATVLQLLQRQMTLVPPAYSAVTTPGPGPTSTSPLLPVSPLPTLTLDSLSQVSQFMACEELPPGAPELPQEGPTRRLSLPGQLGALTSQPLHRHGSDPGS

This assay addresses human ether-à-go-go-related gene (hERG) potassium channel (human, UniProt Q12809). Put plainly: primary screen, population patch clamp on CHO cells stably expressing hERG.
For `Cc1cccc(C)c1NC(=O)CNC(=O)Cc1c[nH]c2ccccc12`, the “hERG current change (%, negative = inhibition) at 1uM” value is reported as 12%.
The value for `CCOC(=O)c1cc2occc2n1CC(=O)N1CCCc2ccccc21` was 7.02%.
As to `O=C(CSc1nnc(-c2ccncc2)n1-c1ccccc1)NC1CC1`, the “hERG current change (%, negative = inhibition) at 1uM” value came out at 8.15%.
As for `CCS(=O)(=O)N1CCCC(C(=O)NCCc2ccccc2)C1` (stereo not shown), the “hERG current change (%, negative = inhibition) at 1uM” value is listed as -1.37%.
For `CC(NC(=O)NC(=O)c1ccc(Cl)cc1)c1ccccc1` (stereo not shown), the “hERG current change (%, negative = inhibition) at 1uM” value was determined as 16.6%.
Take `CCN(CC)CCn1cnc2c([nH]c3cccc(OC)c32)c1=O`: the “hERG current change (%, negative = inhibition) at 1uM” value is 2.43%.
The value for `O=C(c1ccccc1[N+](=O)[O-])N1CCN(c2ccc(N3CCOCC3)nn2)CC1` was 15.1%; that for `CSCCC(NC(=O)/C(=C\c1ccc(Cl)cc1)NC(=O)c1ccccc1)C(=O)O` (stereo not shown) was 23.2%; that for `COc1cc(C)c(C(C)C)cc1S(=O)(=O)NCCCn1ccnc1` was -0.978%.
Consider `CCN(CC1COc2ccccc2O1)C(=O)c1ccc(Cl)c(S(=O)(=O)N2CC(C)OC(C)C2)c1` (stereo not shown), for which the “hERG current change (%, negative = inhibition) at 1uM” value is given as 1.6%.
As to `CN1CCN(CCCNC(=O)C2CCN(c3nnc(-n4cccc4)s3)CC2)CC1`, the “hERG current change (%, negative = inhibition) at 1uM” value turned out to be 15.3%.
As to `COc1ccc(C(=O)OCC(=O)Nc2cccc(C(C)=O)c2)c(OC)c1OC`, the “hERG current change (%, negative = inhibition) at 1uM” value was -3.86%.
The value for `COC(=O)c1ccc(CSc2nc3c(cnn3-c3ccc(C)c(C)c3)c(=O)[nH]2)o1` was 11.3%.
As for `Cc1nnc(N/N=C/c2cccc(OCc3ccc(Cl)c(Cl)c3)c2)n1N.Cl`, the “hERG current change (%, negative = inhibition) at 1uM” value was 11.4%.
On to `Cc1ccc(C=C2C(=O)c3ccccc3C2=O)s1`, for which the “hERG current change (%, negative = inhibition) at 1uM” value is on record as 4.37%.
For `O=C(Nc1ccccc1N1CCN(C(=O)c2ccccc2)CC1)c1ccc(Cl)cc1` the value was -7.21%; for `CC(=O)OC(C(=O)NCc1ccc2c(c1)OCO2)c1ccccc1Cl` (stereo not shown), 22%.
Consider `COc1ccc(NS(=O)(=O)c2cccc(C(=O)NC3CCN(Cc4ccccc4)CC3)c2)cc1`, for which the “hERG current change (%, negative = inhibition) at 1uM” value is given as -8.33%.
For the molecule `Nc1[nH]n(-c2ccccc2)c(=O)c1N=Nc1ccc2c(c1)OCCO2`, the “hERG current change (%, negative = inhibition) at 1uM” value came out at 12.1%.
For the molecule `Cc1cc(SCc2ccc(F)cc2)nc(=O)[nH]1`, the “hERG current change (%, negative = inhibition) at 1uM” value was 14.2%.
For the molecule `COc1ccc(S(=O)(=O)Nc2cc3c4c(c2)CCN4C(=O)CC3)cc1OC`, the “hERG current change (%, negative = inhibition) at 1uM” value was determined as 0.339%.
For the molecule `O=C(COc1ccccc1)n1nc(-c2ccc(Cl)cc2)nc1NCc1ccco1`, the “hERG current change (%, negative = inhibition) at 1uM” value is 4.9%.
For `O=S(=O)(NCCc1ccncc1)c1cc(Br)ccc1F` the value was 2.96%; for `Cc1ccc(S(=O)(=O)NCC(=O)OCC(=O)c2cc(C)n(-c3ccccc3)c2C)cc1`, 12.1%; for `N#Cc1nc(COc2ccccc2)oc1N1CCC(Cc2ccccc2)CC1`, 12.6%.
Consider `O=C(Cc1ccc(F)cc1)N1CCC2(CC1)NCCc1[nH]cnc12`, for which the “hERG current change (%, negative = inhibition) at 1uM” value is reported as 14.4%.
For `Cc1ccc(S(=O)(=O)N2CCC(C(=O)NCCCOC(C)C)CC2)cc1`, the “hERG current change (%, negative = inhibition) at 1uM” value is reported as 12.9%.
Consider `CSc1ncccc1C(=O)OCc1ccc(C#N)cc1.Cl`, for which the “hERG current change (%, negative = inhibition) at 1uM” value is listed as 12.1%.
As for `Cc1ccc(C(=O)Nc2ccnc(-c3cccnc3)n2)cc1`, the “hERG current change (%, negative = inhibition) at 1uM” value was determined as 13%.
For the molecule `N/C(=N\OC(=O)c1ccc(Cl)cc1Cl)c1ccncc1`, the “hERG current change (%, negative = inhibition) at 1uM” value worked out at 9.54%.
With `COc1cccc2cc(C(=O)Nc3cc(Cl)ccc3N3CCOCC3)c(=O)oc12`, the “hERG current change (%, negative = inhibition) at 1uM” value is 15.7%.
As for `CCN(CC)S(=O)(=O)c1ccc2c(c1)c(=O)c(C(=O)NCCN(C)CCc1ccccc1)cn2C`, the “hERG current change (%, negative = inhibition) at 1uM” value was -44.7%.
For the molecule `COc1ccccc1NC(=S)NNC(=O)c1cc(C)n(C)n1`, the “hERG current change (%, negative = inhibition) at 1uM” value was found to be 8.95%.
`O=C(OCn1nnc2ccccc2c1=O)c1ccc(N2CCOCC2)c([N+](=O)[O-])c1`: the “hERG current change (%, negative = inhibition) at 1uM” value is recorded as 16.1%.
Take `CCN(CC)CC(C)CNC(=O)CN1C(=O)CSc2ccc(S(=O)(=O)N3CCOCC3)cc21` (stereo not shown): the “hERG current change (%, negative = inhibition) at 1uM” value was -5.55%.
Take `O=C(Nc1ccc(NC(=S)NC(=O)c2ccco2)cc1)c1ccccc1`: the “hERG current change (%, negative = inhibition) at 1uM” value was determined as 9.07%.
Take `CCOc1ccc2nc(NC(=O)CSCC(=O)Nc3cc(C)on3)sc2c1`: the “hERG current change (%, negative = inhibition) at 1uM” value worked out at 17.9%.
For `COc1ccc(Cl)cc1-n1c(=S)sc2c(=O)[nH]c(SCC(=O)C(C)(C)C)nc21` the value was 16.6%; for `CCCn1cnc2c(N)c(C)c(C)cc21`, 20.3%.
Turning to `O=S1(=O)CCN2C(c3ccc4c(c3)CCCC4)=CSC2=N1`, the “hERG current change (%, negative = inhibition) at 1uM” value came out at 7.63%.
The value for `Cc1ccc([N+](=O)[O-])cc1NC(=O)CN(C(=O)c1ccccc1Cl)C1CCCCC1` was 8.05%; that for `O=C(CCS(=O)(=O)c1ccccc1)N1CCN(c2ccccc2)CC1` was 13%.
For the molecule `COc1cc(NC(=O)CS(=O)(=O)c2ccc(C)cc2)cc(OC)c1OC`, the “hERG current change (%, negative = inhibition) at 1uM” value is listed as 6.95%.
Take `CCCc1ccc2oc(C(=O)N3CCC(C(N)=O)(N4CCCCC4)CC3)c(C)c2c1`: the “hERG current change (%, negative = inhibition) at 1uM” value is reported as -1.55%.
For `O=C(c1cccs1)N(CC1CCCO1)c1nc(-c2ccccc2)cs1` (stereo not shown), the “hERG current change (%, negative = inhibition) at 1uM” value turned out to be 11.8%.
For `C=CCN(C(=O)CNC(=O)c1ccco1)C(C(=O)NC1CCCC1)c1ccc(OC)cc1` (stereo not shown) the value was 17.9%.
Take `COCCNC(=O)CCC(=O)NNc1nc2ccccc2c2nc(C)nn12`: the “hERG current change (%, negative = inhibition) at 1uM” value is 7.86%.
On to `O=C(O)C(Oc1ccc2c(-c3ccccc3)cc(=O)oc2c1)c1ccccc1` (stereo not shown), for which the “hERG current change (%, negative = inhibition) at 1uM” value was found to be 9.07%.
`CCCCOC(=O)Nc1nccs1`: the “hERG current change (%, negative = inhibition) at 1uM” value worked out at 25.2%.
Turning to `O=C1c2cccc(Sc3ccccc3)c2C(=O)c2c(Sc3ccccc3)cccc21`, the “hERG current change (%, negative = inhibition) at 1uM” value was 10.6%.
Turning to `CC1(C)Oc2ccc(C(=O)N3CCc4ccccc43)cc2N(CC(=O)N2CCCC2)C1=O`, the “hERG current change (%, negative = inhibition) at 1uM” value stood at 7.47%.
The value for `CCN(c1ccccc1)S(=O)(=O)c1ccc(Cl)c(C(=O)NCCc2ccc(OC)cc2)c1` was 4.71%.
The value for `Cc1cc(C)n(CCNS(=O)(=O)c2ccc(Cl)cc2)n1` was -3.7%.
Regarding `O=C(N/N=C/c1cccs1)C(=O)Nc1cccc(Cl)c1`, the “hERG current change (%, negative = inhibition) at 1uM” value is reported as 15.1%.
`Cc1cc2c(=O)n(C)c(SCC(=O)Nc3ccccc3)nc2s1`: the “hERG current change (%, negative = inhibition) at 1uM” value was 12.8%.
